This note sets out measurements from the supplement of paper PMC4604168 (melanoma cell lines).

SMILES strings stand for the structures. This is one part of the list. Most values come without repeats; read them as rough.
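Also: cell number obtained by counting DAPI-stained nuclei in high-throughput microscope images with image analysis software, screen run in 1,536-well plates.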

The subject of the assay is MZ2-MEL. The experiment in a line: cell count relative to DMSO control; melanoma cells; higher = more viable cells. As to conditions: library dose: low library concentration; 72 h.
For the compound `Clc1ccc(Nc2nnc(Cc3ccncc3)c3ccccc23)cc1` [vatalanib] + O=C(Oc1ccc([N+](=O)[O-])cc1)N1CCC(C(O)(c2ccc3c(c2)OCO3)c2ccc3c(c2)OCO3)CC1 [JZL184] (first compound 2 µM, partner dose 1 µM), the cell count is 85.9%.
In the case of `COc1cc2ncnc(Nc3ccc(Oc4ccccc4)cc3)c2cc1OC` + O=C(Oc1ccc([N+](=O)[O-])cc1)N1CCC(C(O)(c2ccc3c(c2)OCO3)c2ccc3c(c2)OCO3)CC1 [JZL184] (first compound 2 µM, partner dose 1 µM) it was 90.3%; in that of `Nc1ccn([C@@H]2O[C@H](CO)[C@@H](O)C2(F)F)c(=O)n1` [gemcitabine] + C[As](C)SC[C@H](NC(=O)CC[C@H](N)C(=O)O)C(=O)NCC(=O)O [Darinaparsin] (first compound 0.0004 µM, partner dose 0.4 µM), 90.2%.
Compound `CC(C)C[C@H](NC(=O)[C@H](Cc1ccccc1)NC(=O)c1cnccn1)B(O)O` [Bortezomib] + O=C(Oc1ccc([N+](=O)[O-])cc1)N1CCC(C(O)(c2ccc3c(c2)OCO3)c2ccc3c(c2)OCO3)CC1 [JZL184] (first compound 0.001 µM, partner dose 1 µM) returned a cell count of 83%.
`c1cc(-c2cnn3cc(-c4ccc(OCCN5CCCCC5)cc4)cnc23)ccn1` [Dorsomorphin] + O=C(Oc1ccc([N+](=O)[O-])cc1)N1CCC(C(O)(c2ccc3c(c2)OCO3)c2ccc3c(c2)OCO3)CC1 [JZL184] (first compound 0.4 µM, partner dose 1 µM) returned a cell count of 97.8%.
